The antibiotic and cytotoxicity screens of Wong et al. (2023)
The list shows a part of the results.

Tests used:
[1] = system: HSkMC (human skeletal muscle cells); assay: cytotoxicity call (relative viability < 0.9); details: 10 µM
[2] = system: HepG2; assay: cytotoxicity call (relative viability < 0.9); details: 10 µM
[3] = system: S. aureus RN4220; assay: growth inhibition call (relative growth <= 0.2); details: 50 µM

Cc1ccc(S(=O)(=O)Nc2cccc3c2O[C@H](CN(C)S(=O)(=O)c2ccccc2)[C@H](C)CN([C@H](C)CO)C3=O)cc1
cytotoxicity call [1]: inactive | cytotoxicity call [2]: inactive | growth inhibition call [3]: inactive

Cn1cnc(S(=O)(=O)N2C[C@@H](O)COC[C@@H]3O[C@H](CC(=O)NC4CCCC4)CC[C@H]32)c1
cytotoxicity call [1]: inactive | cytotoxicity call [2]: inactive | growth inhibition call [3]: inactive

CC(C)CN(C[C@@H](OP(=O)(O)O)[C@H](Cc1ccccc1)NC(=O)O[C@H]1CCOC1)S(=O)(=O)c1ccc(N)cc1
cytotoxicity call [1]: inactive | cytotoxicity call [2]: inactive | growth inhibition call [3]: inactive

COc1ccc(S(=O)(=O)N2C[C@H](O)COC[C@H]3O[C@@H](CC(=O)NCCN4CCCCC4)CC[C@@H]32)cc1
cytotoxicity call [1]: inactive | cytotoxicity call [2]: inactive | growth inhibition call [3]: inactive

O=C(C[C@@H]1CC[C@H]2[C@@H](COC[C@@H](O)CN2C(=O)Nc2cccc(F)c2)O1)NCCCN1CCOCC1
cytotoxicity call [1]: inactive | cytotoxicity call [2]: inactive | growth inhibition call [3]: inactive

Cc1ccc(S(=O)(=O)N(C)C[C@@H]2Oc3ncc(-c4ccncc4)cc3C(=O)N([C@H](C)CO)C[C@H]2C)cc1
cytotoxicity call [1]: inactive | cytotoxicity call [2]: inactive | growth inhibition call [3]: inactive

C[C@@H]1CN([C@H](C)CO)C(=O)c2cc(NC(=O)Nc3ccc(C(F)(F)F)cc3)ccc2O[C@@H](C)CCCCO[C@@H]1CN(C)C(=O)NC1CCCCC1
cytotoxicity call [1]: inactive | cytotoxicity call [2]: inactive | growth inhibition call [3]: inactive

COc1ccc(NC(=O)N(C)C[C@H]2OCCCC[C@@H](C)Oc3ccc(NS(=O)(=O)c4ccccc4)cc3C(=O)N([C@@H](C)CO)C[C@@H]2C)cc1
cytotoxicity call [1]: inactive | cytotoxicity call [2]: inactive | growth inhibition call [3]: inactive

CCCCN1CCCCC1C(=O)Nc1c(C)cccc1C.Cl (stereo not drawn)
cytotoxicity call [1]: inactive | cytotoxicity call [2]: inactive | growth inhibition call [3]: inactive

Cc1noc(C)c1S(=O)(=O)Nc1cccc2c1O[C@@H](CN(C)C(=O)Nc1ccccc1)[C@@H](C)CN([C@@H](C)CO)C2=O
cytotoxicity call [1]: inactive | cytotoxicity call [2]: inactive | growth inhibition call [3]: inactive

C[C@@H]1CN([C@@H](C)CO)C(=O)c2cccc(NC(=O)CCCCCC(=O)Nc3ccccc3N)c2O[C@H]1CN(C)C(=O)Nc1ccc(C(F)(F)F)cc1
cytotoxicity call [1]: inactive | cytotoxicity call [2]: inactive | growth inhibition call [3]: inactive

C[C@@H]1CN([C@H](C)CO)C(=O)c2cc(NC(=O)Cn3cnnn3)ccc2O[C@@H]1CN(C)S(=O)(=O)c1cccs1
cytotoxicity call [1]: inactive | cytotoxicity call [2]: inactive | growth inhibition call [3]: inactive

C[C@@H]1CN([C@@H](C)CO)C(=O)c2cccc(NC(=O)c3nc4ccccc4s3)c2O[C@@H]1CN(C)S(=O)(=O)c1cn(C)cn1
cytotoxicity call [1]: inactive | cytotoxicity call [2]: inactive | growth inhibition call [3]: inactive

C[C@H]1CN([C@@H](C)CO)C(=O)c2cc(NC(=O)Cn3cnnn3)ccc2O[C@@H]1CN(C)CC1CCCCC1
cytotoxicity call [1]: inactive | cytotoxicity call [2]: inactive | growth inhibition call [3]: inactive

C[C@@H]1CN([C@@H](C)CO)C(=O)c2cccc(NC(=O)c3ccc(-c4nccs4)cc3)c2O[C@@H]1CN(C)Cc1ccc(Cl)c(Cl)c1
cytotoxicity call [1]: inactive | cytotoxicity call [2]: active | growth inhibition call [3]: inactive

CN(C)CCCNC(=O)C[C@@H]1CC[C@H]2[C@@H](COC[C@@H](O)CN2S(=O)(=O)c2ccc(Cl)cc2)O1
cytotoxicity call [1]: inactive | cytotoxicity call [2]: inactive | growth inhibition call [3]: inactive

C[C@@H]1CN([C@H](C)CO)S(=O)(=O)c2ccc(C#Cc3ccc(F)cc3)cc2O[C@H]1CN(C)C(=O)c1ccccn1
cytotoxicity call [1]: inactive | cytotoxicity call [2]: inactive | growth inhibition call [3]: inactive

COc1c(C)cc(-c2cc3c(c(CCc4ccccc4)n2)[Si](C(C)C)(C(C)C)O[C@H]3c2ccccc2)cc1C
cytotoxicity call [1]: inactive | cytotoxicity call [2]: inactive | growth inhibition call [3]: active

C[C@@H]1CN([C@@H](C)CO)S(=O)(=O)c2ccc(C#CC3(O)CCCC3)cc2O[C@H]1CN(C)C(=O)c1cccnc1
cytotoxicity call [1]: inactive | cytotoxicity call [2]: inactive | growth inhibition call [3]: inactive

O=C(C[C@@H]1C=C[C@H](NS(=O)(=O)c2ccc(F)cc2)[C@H](CO)O1)NCc1ccc(Cl)c(Cl)c1
cytotoxicity call [1]: inactive | cytotoxicity call [2]: inactive | growth inhibition call [3]: inactive

COc1ccc(S(=O)(=O)N2C[C@H](O)COC[C@@H]3O[C@H](CC(=O)NCCN4CCCCC4)CC[C@H]32)cc1
cytotoxicity call [1]: inactive | cytotoxicity call [2]: inactive | growth inhibition call [3]: inactive

CNC[C@H]1OCCCC[C@H](C)Oc2ccc(NC(=O)Nc3ccc(C(F)(F)F)cc3)cc2C(=O)N([C@H](C)CO)C[C@@H]1C
cytotoxicity call [1]: inactive | cytotoxicity call [2]: inactive | growth inhibition call [3]: inactive

CC(C)NC(=O)N[C@H]1CCCCNC1=O
cytotoxicity call [1]: inactive | cytotoxicity call [2]: inactive | growth inhibition call [3]: inactive

COc1ccc(CN(C)C[C@@H]2OCCCC[C@@H](C)Oc3ccc(NC(=O)Nc4c(C)noc4C)cc3C(=O)N([C@@H](C)CO)C[C@H]2C)cc1
cytotoxicity call [1]: inactive | cytotoxicity call [2]: inactive | growth inhibition call [3]: inactive

Cc1ccc(S(=O)(=O)Nc2ccc3c(c2)C(=O)N([C@H](C)CO)C[C@@H](C)[C@@H](CN(C)Cc2ccc(Cl)c(Cl)c2)O3)cc1
cytotoxicity call [1]: active | cytotoxicity call [2]: active | growth inhibition call [3]: inactive

Cc1noc(C)c1NC(=O)N(C)C[C@H]1Oc2c(NS(=O)(=O)c3ccccc3)cccc2C(=O)N([C@@H](C)CO)C[C@H]1C
cytotoxicity call [1]: inactive | cytotoxicity call [2]: inactive | growth inhibition call [3]: inactive

COc1ccc(NC(=O)Nc2ccc3c(c2)CC(=O)N([C@@H](C)CO)C[C@H](C)[C@@H](CN(C)Cc2ccc(Oc4ccccc4)cc2)O3)cc1
cytotoxicity call [1]: inactive | cytotoxicity call [2]: inactive | growth inhibition call [3]: inactive

Cc1ccc(S(=O)(=O)N(C)C[C@H]2Oc3c(NS(=O)(=O)c4ccc(F)cc4)cccc3C(=O)N([C@H](C)CO)C[C@@H]2C)cc1
cytotoxicity call [1]: inactive | cytotoxicity call [2]: inactive | growth inhibition call [3]: inactive

C[C@@H]1CCCCO[C@@H](CN(C)CC2CCCCC2)[C@H](C)CN([C@H](C)CO)C(=O)c2cc(NC(=O)CCC(F)(F)F)ccc2O1
cytotoxicity call [1]: inactive | cytotoxicity call [2]: inactive | growth inhibition call [3]: inactive

CC(C)CC#Cc1ccc2c(c1)O[C@H](CN(C)S(=O)(=O)c1cccc(F)c1)[C@@H](C)CN([C@H](C)CO)S2(=O)=O
cytotoxicity call [1]: inactive | cytotoxicity call [2]: inactive | growth inhibition call [3]: inactive

CC(C)NC(=O)N(C)C[C@@H]1Oc2c(NC(=O)Nc3ccc4c(c3)OCO4)cccc2C(=O)N([C@H](C)CO)C[C@H]1C
cytotoxicity call [1]: inactive | cytotoxicity call [2]: inactive | growth inhibition call [3]: inactive

O=C(CCCCCCC(=O)Nc1ccccc1O)N/N=C/[C@H](O)[C@@H](O)[C@H](O)[C@H](O)CO[C@H]1O[C@H](CO)[C@H](O)[C@H](O)[C@H]1O
cytotoxicity call [1]: inactive | cytotoxicity call [2]: inactive | growth inhibition call [3]: inactive

O=C(O)c1cnns1
cytotoxicity call [1]: inactive | cytotoxicity call [2]: inactive | growth inhibition call [3]: inactive

C[C@@H]1CCCCO[C@H](CN(C)Cc2ccccc2)[C@H](C)CN([C@H](C)CO)C(=O)c2cc(NC(=O)c3ccccc3)ccc2O1
cytotoxicity call [1]: inactive | cytotoxicity call [2]: inactive | growth inhibition call [3]: inactive

Cc1ncc([N+](=O)[O-])cc1C(=O)O
cytotoxicity call [1]: inactive | cytotoxicity call [2]: inactive | growth inhibition call [3]: inactive

NC(=O)Cc1cccc(C(=O)c2ccccc2)c1N
cytotoxicity call [1]: inactive | cytotoxicity call [2]: inactive | growth inhibition call [3]: inactive

Cc1ccccc1/C=C(\CCC(=O)O)c1nc2ccccc2s1
cytotoxicity call [1]: inactive | cytotoxicity call [2]: inactive | growth inhibition call [3]: inactive

C[C@H]1CN([C@@H](C)CO)S(=O)(=O)c2ccc(C#Cc3ccccc3)cc2O[C@@H]1CN(C)S(=O)(=O)c1ccccc1F
cytotoxicity call [1]: inactive | cytotoxicity call [2]: inactive | growth inhibition call [3]: inactive

CC1CCC2(OC1)OC1CC3C4CCC5CC(O)CCC5(C)C4CC(=O)C3(C)C1C2C (stereo not drawn)
cytotoxicity call [1]: inactive | cytotoxicity call [2]: inactive | growth inhibition call [3]: inactive

C[C@@H]1CCCCO[C@H](CN(C)Cc2ccc(Cl)c(Cl)c2)[C@@H](C)CN([C@@H](C)CO)C(=O)c2cc(NC(=O)Nc3ccc4c(c3)OCO4)ccc2O1
cytotoxicity call [1]: inactive | cytotoxicity call [2]: inactive | growth inhibition call [3]: inactive

CCOC(=O)N1CCN(C(=O)CN(C)S(=O)(=O)c2ccc3c(c2)c(=O)n(C)c(=O)n3C)CC1
cytotoxicity call [1]: inactive | cytotoxicity call [2]: inactive | growth inhibition call [3]: inactive

Cc1nc(-c2ccc(OCC(C)C)c(C#N)c2)sc1C(=O)O
cytotoxicity call [1]: inactive | cytotoxicity call [2]: active | growth inhibition call [3]: inactive

Cc1noc(C)c1S(=O)(=O)Nc1ccc2c(c1)C(=O)N([C@@H](C)CO)C[C@@H](C)[C@H](CN(C)S(=O)(=O)c1cccs1)O2
cytotoxicity call [1]: inactive | cytotoxicity call [2]: inactive | growth inhibition call [3]: inactive

C[C@H]1CN([C@@H](C)CO)C(=O)c2cc(NS(=O)(=O)c3ccc(Cl)cc3)ccc2O[C@@H]1CN(C)Cc1ccc(Oc2ccccc2)cc1
cytotoxicity call [1]: active | cytotoxicity call [2]: active | growth inhibition call [3]: inactive

C[C@@H]1CCCCO[C@H](CN(C)Cc2ccc(C(F)(F)F)cc2)[C@@H](C)CN([C@@H](C)CO)C(=O)c2cc(NC(=O)NC3CCCCC3)ccc2O1
cytotoxicity call [1]: inactive | cytotoxicity call [2]: active | growth inhibition call [3]: inactive

COc1ccc(NC(=O)N(C)C[C@H]2OCCCC[C@H](C)Oc3ccc(NC(=O)NC(C)C)cc3C(=O)N([C@@H](C)CO)C[C@H]2C)cc1
cytotoxicity call [1]: inactive | cytotoxicity call [2]: inactive | growth inhibition call [3]: inactive

Cc1ccc(S(=O)(=O)N(C)C[C@H]2Oc3c(NC(=O)c4cc(C)nn4C)cccc3C(=O)N([C@H](C)CO)C[C@H]2C)cc1
cytotoxicity call [1]: inactive | cytotoxicity call [2]: inactive | growth inhibition call [3]: inactive

Cc1ccc(S(=O)(=O)N(C)C[C@@H]2OCCCC[C@H](C)Oc3ccc(NC(=O)c4ccccc4)cc3C(=O)N([C@H](C)CO)C[C@@H]2C)cc1
cytotoxicity call [1]: inactive | cytotoxicity call [2]: inactive | growth inhibition call [3]: inactive

Cc1noc(C)c1NC(=O)N(C)C[C@@H]1Oc2ccc(NC(=O)Nc3ccc(C(F)(F)F)cc3)cc2CC(=O)N([C@@H](C)CO)C[C@H]1C
cytotoxicity call [1]: inactive | cytotoxicity call [2]: inactive | growth inhibition call [3]: inactive

N#CCNC(=O)CN1C(=O)c2ccccc2C1=O
cytotoxicity call [1]: inactive | cytotoxicity call [2]: inactive | growth inhibition call [3]: inactive

Cc1noc(C)c1S(=O)(=O)Nc1ccc2c(c1)C(=O)N([C@H](C)CO)C[C@@H](C)[C@@H](CN(C)Cc1ccc(C(F)(F)F)cc1)OCCCC[C@@H](C)O2
cytotoxicity call [1]: inactive | cytotoxicity call [2]: inactive | growth inhibition call [3]: inactive

CCNc1nc(NCC)nc(C(=O)OCCO)n1
cytotoxicity call [1]: inactive | cytotoxicity call [2]: active | growth inhibition call [3]: inactive

O=c1[nH]c(=O)n(C2CC(O)C(CO)O2)cc1I (stereo not drawn)
cytotoxicity call [1]: inactive | cytotoxicity call [2]: inactive | growth inhibition call [3]: inactive

C[C@@H]1CN([C@@H](C)CO)C(=O)c2cc(NC(=O)Cn3cnnn3)ccc2O[C@H]1CN(C)S(=O)(=O)c1ccc(F)cc1
cytotoxicity call [1]: inactive | cytotoxicity call [2]: inactive | growth inhibition call [3]: inactive

Cc1ccc(S(=O)(=O)N2C[C@H](O)COC[C@@H]3O[C@@H](CC(=O)N[C@H]4CCN(Cc5ccccc5)C4)CC[C@H]32)cc1
cytotoxicity call [1]: inactive | cytotoxicity call [2]: inactive | growth inhibition call [3]: inactive

CN1CCN(C(=O)C[C@@H]2C[C@@H]3c4cc(NS(=O)(=O)c5ccc(F)cc5)ccc4O[C@@H]3[C@H](CO)O2)CC1
cytotoxicity call [1]: inactive | cytotoxicity call [2]: inactive | growth inhibition call [3]: inactive
